Results published in PubChem BioAssay AID360 (National Center for Advancing Translational Sciences (NCATS), 2006).
In all, about 48,000 compounds went through this assay and about 550 (1.1%) were called active. Not shown: some 4% with an inconclusive outcome. No stated cut-off is given here; in the data, active means potency below about 15 µM; inconclusive means mostly about 16 µM to 33 µM; inactive means weaker than that. The list shows a part of the results.

target: Lysosomal acid glucosylceramidase (Homo sapiens) (UniProt P04062); test: Glucocerebrosidase; conditions: purified enzyme, resorufin glucoside fluorescence (screen aimed at inhibitors), 20 min; series mostly up to 77 µM;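 further: the screen sought inhibitors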
UniProt P04062, sequence (P04062 whole entry, looked up): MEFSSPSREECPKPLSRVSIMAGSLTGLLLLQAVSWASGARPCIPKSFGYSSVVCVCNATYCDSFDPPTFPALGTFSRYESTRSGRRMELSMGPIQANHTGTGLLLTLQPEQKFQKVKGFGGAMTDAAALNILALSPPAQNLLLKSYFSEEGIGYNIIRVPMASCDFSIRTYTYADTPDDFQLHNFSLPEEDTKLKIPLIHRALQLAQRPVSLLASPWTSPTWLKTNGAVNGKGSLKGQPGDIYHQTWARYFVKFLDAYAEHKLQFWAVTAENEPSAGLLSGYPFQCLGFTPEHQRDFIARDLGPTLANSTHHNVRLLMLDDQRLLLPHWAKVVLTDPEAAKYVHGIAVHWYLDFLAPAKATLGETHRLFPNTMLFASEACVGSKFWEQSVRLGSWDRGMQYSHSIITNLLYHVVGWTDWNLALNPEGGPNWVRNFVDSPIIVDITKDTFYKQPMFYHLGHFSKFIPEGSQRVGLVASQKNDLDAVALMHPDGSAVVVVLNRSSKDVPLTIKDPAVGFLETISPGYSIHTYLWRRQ
Method in brief: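 Normal human glucocerebrosidase (0.2 nM final) was assayed with resorufin β-D-glucopyranoside (30 uM final) in 50mM citric acid/KH2PO4, 10mM sodium taurocholate, 0.01% tween-20, pH 5.9. Compounds were titrated; fluorescence (Ex 548, Em 600) read after 20 min at RT.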
Potency means the concentration at half of the fitted maximal effect.

Potency, inactive:
O=C(NCc1nc2ccccc2[nH]1)c1cc2ccccc2oc1=O > 76.9 µM, COC(=O)c1ccc(C2c3c(oc4ccc(F)cc4c3=O)C(=O)N2CCO)cc1 (stereo not drawn) > 76.9 µM, CCOC(=O)c1cnc(SC2CCc3ccccc3C2=O)nc1N (stereo not drawn) > 76.9 µM, CC1(C)CC(C#N)(N2CCOCC2)CCO1 (stereo not drawn) > 76.9 µM, CCc1ccc2oc(-c3cc(N)ccc3O)nc2c1 > 76.9 µM, O=C(NCc1ccccn1)c1ccc2nc(-c3ccco3)c(-c3ccco3)nc2c1 > 76.9 µM, CCOc1ccc(CNc2ccc3c(c2)ncn3C)cc1 > 76.9 µM, Cc1nc2ncnn2c(Nc2ccc3c(c2)OCO3)c1Cc1ccccc1 > 76.9 µM, O=C(c1ccco1)N1CCN(C(=O)c2cc3sccc3n2Cc2ccccc2)CC1 > 76.9 µM, CCN1C(=O)c2cccc3c(NC(=O)c4cccc(N5C(=O)CCC5=O)c4)ccc1c23 > 76.9 µM, CCOC(=O)c1c(C)[nH]c2cc(Br)c(O)cc12 > 76.9 µM, COCCN(CC(=O)NC1CCCCC1)C(=O)CSc1nc2ccccc2o1 > 76.9 µM, Cc1onc(-c2c(F)cccc2Cl)c1C(=O)N1CCc2ccccc2C1 > 76.9 µM, CCOC(=O)CSc1nc(N)c(C#N)c(-c2ccc(OCC)cc2)c1C#N > 76.9 µM, O=C(O)CCC(=O)N1CCc2cc(S(=O)(=O)NC3CCCc4ccccc43)ccc21 (stereo not drawn) > 76.9 µM, COc1ccc(CN2CCC(CNC(=O)NC3CCCCC3)CC2)cc1 > 76.9 µM, CC(C)(/C=N/O)/[N+]([O-])=C/c1ccccc1C(F)(F)F > 76.9 µM, CCOC(=O)c1oc2ccccc2c1CN1CCOCC1 > 76.9 µM, COCCN1C(=O)c2ccccc2C(C(=O)NCCCN2CCCC2=O)C1c1c[nH]c2ccccc12 (stereo not drawn) > 76.9 µM, C=CCn1c(COc2ccccc2)nnc1SCC(=O)C(C)(C)C > 76.9 µM, CCc1c(C)sc(NC(=O)OC)c1C(=O)N1CCCCC1 > 76.9 µM, O=C(NCCc1ccccn1)C1CCCN(S(=O)(=O)Cc2ccccc2)C1 (stereo not drawn) > 76.9 µM, Cn1c(=O)cc(OCCCC(=O)N2CCCCC2)c2ccccc21 > 76.9 µM, CCCCC(=O)Nc1ccc(NC(=O)c2ccc3c(c2)OCO3)cc1OC > 76.9 µM, COc1ccc(C(C)=O)cc1COC(=O)c1ccc(S(=O)(=O)N2CCOCC2)cc1 > 76.9 µM, Cc1cc(C(=O)N2CCN(C(c3ccccc3)c3ccccc3)CC2)no1 > 76.9 µM, C=CCn1c(C)cc(C(=O)COc2nncc3ccccc23)c1C > 76.9 µM, CC(C)c1ccc(NC(=O)c2csnn2)cc1, COc1ccc(S(=O)(=O)N[C@@H](Cc2ccccc2)C(=O)N2CC[C@@]3(O)CCCC[C@H]3C2)cc1 > 76.9 µM, COc1cccc(C2C(C(=O)Nc3ccc(C)cc3C)=C(C)Nc3ncnn32)c1OC (stereo not drawn) > 76.9 µM, N#C/C(=C(/O)CN1CCOCC1)c1nc(-c2ccccc2)cs1 > 76.9 µM, C=CCN1C(=O)CS/C1=C(\C#N)S(=O)(=O)c1ccc(C)cc1 > 76.9 µM, COc1cc(OC)c(-c2nnc(-c3ccc(OC)c(OC)c3OC)o2)cc1OC > 76.9 µM, C=CCOC(=O)C1=C(C)Nc2nnnn2C1c1cc(OC)ccc1OC (stereo not drawn) > 76.9 µM, CN1CCN(C(=O)NC2CCCN2S(=O)(=O)c2ccc(Cl)cc2)CC1 (stereo not drawn) > 76.9 µM, Cc1cc(C)n(CCOC(=O)c2sc3ccccc3c2Cl)n1 > 15.4 µM, O=C(Cn1cnc2c(nnn2-c2ccc(F)cc2)c1=O)N1CCCC1 > 76.9 µM, CCNC(=O)C1CC(=O)N(Cc2ccc3c(c2)OCO3)C(=Nc2ccc(OCC)cc2)S1 (stereo not drawn) > 76.9 µM, COCCCn1c(=S)[nH]c2ncccc2c1=O > 76.9 µM, CN(C)c1cc(O)c(C(=S)Nc2ccccc2)c(N(C)C)c1 > 76.9 µM, Cc1ccc(C)c(S(=O)(=O)C(C#N)c2nc3ccccc3nc2N2CCCC2)c1 (stereo not drawn), CC12C=CC3(CN(Cc4ccccc4)C(=O)C3C1C(=O)NC1CC1)O2 (stereo not drawn) > 76.9 µM, COC(=O)c1ccccc1NC(=O)C1CCCN(S(=O)(=O)c2ccc(OC)cc2)C1 (stereo not drawn) > 76.9 µM, O=C(CSc1nnc(COc2ccccc2)o1)NCCc1ccccc1 > 76.9 µM, CCOC(=O)c1c(NC(=O)c2nn(CC)cc2Br)c(C#N)nn1-c1ccccc1 > 76.9 µM, COCCn1c(C(C)C)nc2oc3ccccc3c(=O)c2c1=O > 76.9 µM, CC(C)CCn1c(SCC(=O)c2ccccc2)nc2c1c(=O)[nH]c(=O)n2C > 76.9 µM, COc1cc(OC)c(C(=O)Nc2ncn[nH]2)cc1OC > 76.9 µM, S=C1SCN(Cc2ccccn2)CN1Cc1ccco1 > 76.9 µM, COC(=O)c1nnn(-c2ccccc2)c1N > 76.9 µM, CCOC(=O)c1c(N)sc2c1CCS(=O)(=O)C2 > 76.9 µM, O=C(CCCN1Cc2ccccc2C1)c1ccc(F)cc1 > 76.9 µM, CCCc1nc2oc3c(N4CCNCC4)ncnc3c2c2c1CCCC2 > 76.9 µM, Cc1c(-c2nc(N)nc(Nc3ccccc3)n2)oc2ccccc12, Cc1cc(N2CCC(C)CC2)n2nc(C)c(-c3ccccc3)c2n1 > 76.9 µM, CC(C)C(=O)Nc1ccccc1N1CCN(C(=O)c2ccccc2)CC1 > 76.9 µM, CCc1nnc(N2CCN(c3ncnc4c3oc3ccccc34)CC2)s1 > 76.9 µM, CC(C)C(NC(=O)C1CCCCC1)C(=O)Nc1ccncc1 (stereo not drawn) > 76.9 µM
